Assay results as given in the supplement of paper PMC11383711.
Some of the results follow. Binding of human antibodies (heavy:light variable regions, tested as scFv in one mRNA-display pool) to influenza hemagglutinin, with or without the stem antibody CR9114 bound first. Score = (mean enrichment − median) / interquartile range of that screen; higher = more enriched, 0 = typical non-binder. Active = above the paper's cut-off per screen: stems 28; unblocked H1 Solomon Islands 5, H1 Michigan 3, H3 5, H5 19, H7 2.85, both B 5; blocked 9, 7, H5 10, H7 10, B Phuket 10, B Lee 11.5. Scores are scaled within each screen and are no affinities; replicates correlate at about 0.6 to 0.9, and antibodies rare in the pool are noisier.

B1: C6-G03 (protein)
chain 1: VQLVESGGGLVQPGRSLRLSCAASGFSFDDFAMHWVRQAPGKGLEWVSGVTWNSGSRDYADSVKGRFTISRDNDKNSLSLQMNSLRPEDTAVYYCVKGRGGVYTGYGPRYLDYWGQGTLVTVS
chain 2: DIQMTQSPTSLSASVGDRVSITCRASQSVITYLHWYQQKPGKAPKLLISAASSLQSGVSSRFSGSGSGTDFTLTISSLQPEDYATYYCQQSYSSPRTFGPGTKVDIK
B2: C1-2-C06 (protein)
chain 1: VQLLESGGGLVQPGGSLRLSCVASGFSFSKYGMSWVRQVPGKGLEGVASVSVGGGYSHYSDYVAGRFVISKEVSSNTLHLQMSRLRAEDTAVYYCVKNRGWQLGPDAFDSWGQGTMVTVSS
chain 2: AIQLTQSPSSLSASLGDRVVITCRASQGVNRDLAWYQQKPGEVPSLLMSSVSLMKSGVPSRFSGSGSGTDFTLTINGLQSEDFAIYYCQQFNSYPITFGQGTRLEIK
B3: AG13-3G01 (protein)
chain 1: VQLVQSGPEVKKPGASVKVSCKASGYTFTSNHIHWLRQAPGQGIEWMGWINPDTGDTEYSRKFQGRVTMTRDTSMTSAYMDLNWLGSADTGVYYCARDRENRLDIVTVPPDNWFDSWGQGTLVTVSS
chain 2: EIVMTQSPATLSASPGGRVTLSCRASQSVSNNLVWYQQKPGQAPRLLIYDASTRATGVPGRFSGSGSGTEFTLTISSLQSEDFAIYYCQQYQNWPTFGQGTKVEIK
B4: antibody 2G04 (protein)
chain 1: VQLVESGGGLVQPGRSLRLSCAASGFTFDDYAMHWVRQAPGKGLEWVSGINWNSGVVGYADSVKGRFTISRDNAKNSLYLQMTSLRAEDTALYYCAKDMHLSAMDILRDAFNMWGQGTMVTVSS
chain 2: DIQMTQSPSTLSASLRDRVTITCRASQSISRWLAWYQQKPGKAPKLLIYAASTLESGVPPRFSGSGSGTEFTLTISSLQPDDFATYYCQQYNSDVTFGQGTRLEIK
B5: 01.z.01 (protein)
chain 1: QVQLQESGPGLVKPSQTLSLTCTVSGGSITNDDSYWSWIRQTPGKGLEWIGYIFHSGNTYYNPSLKSRVTISVDTSKNQFSLEVTSVTAADTAVYYCARDTGVIKDEYFYYYGLDVWGQGTTVTVSS
chain 2: EIVMTQSPATLSVSPGERATLSCRAGQSVNTNLAWFQQKPGQAPRLLIYGASTRATGIPARFSGSGSGTEFTLTISSLQSEDCAVYYCQQYNQWPLNTFGQGTKLEIK
B6: R95-2A08 (protein)
chain 1: EVQLVESGGGLVQPGGSLRLSCAASGFIVNKNHMNWVRQAPGKGLEWVSVIYSGGNPYHADSVEGRFTISRDISKNTVHLQMNSLGAEDTAVYYCARDGGGWYVNDAFDIWGQGTTVTVSS
chain 2: QSALTQPASVSGSPGQSITISCTGTSSDIGGYNYVSWYQQHPGKAPKLIIFEVTTRPSGISNRFSGSKSGNTASLTISGLQAEDEADYYCSSYRSTTDVLFGGGTKVTVL
B7: K77-1C11 (protein)
chain 1: QVQLQESGPGLVKPSETLSLSCTVSGGSISTYDWSWIRQSPGKGLEWIGCIYYIGRTEYNPSLKSRVTISVDTSKNQFSLKLSSVTAADTAVYYCARDGRGYSGYDYYNYYGMDAWGQGTTVTVSS
chain 2: NFMLTQPHSVSESPGKTVVISCTRSSGSIDSNYVQWYQQRPGSSPTIVIYVDNQRPSGVPDRFSGSIDSASNSASLTISGLKTEDEADYYCQSNDNNNRVFGGGTKLTVL
B8: K77-1C04 (protein)
chain 1: QVQLQESGPGLVKPSETLSLTCTVSGGSISSSRYYWGWIRQPPGKGLECIGTIYYTGNTYYNPSLKSRVTISVDTSKNQFSLKLRSVTAADTAVYYCAREGQWLDPNYFDYWGQGALVTVSS
chain 2: DIVMTQSPDSLAVSLGERATINCKSSQSVLFRSNNKNCVAWYQQKPGQPPKLLIYWASTRESGVPDRFSGSGSGTDFTLTINSLQAEDVAVYYCQQYYSTPQTFGQGTKVEIK
B9: C3-2-3F02 (protein)
chain 1: VQLVESGGGVVRPGGSLRLSCEASGFTFRVYDMHWVRQAPGKGLEWVAFIRRDGSNEYVIDSVKGRFTISRDNSKNTVYLRMNSLRPEDTALYYCAKLPQRLDEGDYYFDMEVWGQGTTVTVSS
chain 2: DIQMTQSPASLSAAVGDRVTITCRASQGVGNDLGWYQQKPGKAPKRLIYAASSLEDGVPSRFSGSGSGTDFTLTISSLQPEDFATYYCLQHSTYPLTFGGGTKVEIK
B10: AG10-3A02 (protein)
chain 1: VQLVESGGGLVQPGGSLRLSCLGSGFTFSRYSMNWVRQAPGKGLEWVSYISDSSRTIYYADSVKGRFTIFRDNAKNSLYLQMNSLRDEDTAVYYCARDPDTAHDRYFDSWGQGTLVTVSS
chain 2: DIQLTQSPSFLSASVGDRVTITCRASQVIGSYFAWYQQKPGKAPKLLIYATSTLQSGVPSRFSGSGSGTEFTLTISGLQPEDFATYYCQQLNTYPPITFGPGTKVDIK
B11: 220-14-IgG-1A03 (protein)
chain 1: EVQLVESGGGLVQPGGSLRLSCAASGFTFSNYWMNWVRQGPGKGLVWVARINSDGSRTIYADSVKGRFTISRDNPKNTLYLEMNSLRAEDTAVYFCAREPYFPLYFDYWGQGALVTVSS
chain 2: DIVMTQSPLSLPVTPGEPASISCRSSQSLLHRNEDNYLNWYLQKPGQSPQILIYFGSNRASGVPDRFSGSGSGTDFTLKISRVEAEDVGVYYCMQALQTPFTFGQGTKVEIK
B12: antibody 4F05 (protein)
chain 1: VQLQQWGAGVWRPSETLSLTCGVSGGSFNGNYWTWIRQSPGKGLEWMGEVDDNGRTNYNPSLTGRVSMSVDTTKKQFSLNLTSMTAADTAVYYCARRGSGSRLVRADYYIDVWGQGTTVTVSS
chain 2: EIVLTQSPGILSLSPGERATLSCRASQTVGSSYLAWYQQRPGQPPRLLIFGSSTRATGVPDRFSGSGSGTDFTLTISRLEPEDFAVYYCQRYGPSPRFTFGPGTKVDIK
B13: 220-14-IgG-1E01 (protein)
chain 1: EVQLVESGGGLVQPGGSLRLSCAASGFTSSSYEMNWVRQAPGKGLEWISFISKSESIISYADSVKGRFTISRDSAKNSLYLQLTSLRAEDTAVYYCARLGLLGFGELGPPHWYYAMDVWGQGTTVTVSS
chain 2: EIVLTQSPGTLSLSPGERATLSCRASQSVSSTYLVWYRQRPGQAPRLLIYGASKRATGIPDRISGSGSGTDFTLTISRLEPEDFAVYYCQVYGSSPLFAFGPGTK

Each binder was assayed against Influenza A H1N1 A/Michigan/45/2015 hemagglutinin ectodomain (assay: mRNA display binding score; higher = more enriched on the antigen). Settings: antigen blocked with: 2 µM CR9114 IgG.
Description: (§1)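 A pool of natively paired antibodies, displayed as scFv on mRNA, was selected once on antigen-coated beads and sequenced before and after; two replicates.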

Binder | mRNA display binding score
B1 | inactive: -0.00872
B2 | inactive: 0.282
B3 | inactive: 4.59
B4 | inactive: 0.322
B5 | inactive: 2.27
B6 | inactive: -0.159
B7 | inactive: -0.0887
B8 | inactive: 0.399
B9 | inactive: -0.165
B10 | inactive: 1.2
B11 | active: 8.07
B12 | inactive: 0.664
B13 | inactive: 0.859

Same assay, conditions: antigen blocked with: nothing

Binder | mRNA display binding score
B1 | inactive: 0.917
B2 | inactive: -0.504
B3 | inactive: -0.087
B4 | inactive: 1.23
B5 | inactive: 0.617
B6 | inactive: -0.428
B7 | inactive: 0.129
B8 | inactive: 0.397
B9 | inactive: -0.561
B10 | inactive: 1.7
B11 | inactive: 1.51
B12 | inactive: 1.7
B13 | inactive: 1.7

These binders were tested against Influenza A H1N1 A/Solomon Islands/3/2006 hemagglutinin ectodomain in the same assay as above. Settings: antigen blocked with: 2 µM CR9114 IgG.
Description: as §1

Binder | mRNA display binding score
B1 | inactive: 0.085
B2 | active: 48.3
B3 | inactive: 0.983
B4 | inactive: 0.706
B5 | inactive: 0.222
B6 | inactive: -0.322
B7 | inactive: -0.0162
B8 | inactive: -0.0981
B9 | inactive: -0.442
B10 | inactive: 1.13
B11 | active: 215
B12 | inactive: 0.528
B13 | inactive: 1.28

Same assay, conditions: antigen blocked with: nothing

Binder | mRNA display binding score
B1 | inactive: 0.181
B2 | active: 47.6
B3 | inactive: -0.0491
B4 | inactive: 0.561
B5 | inactive: 0.286
B6 | inactive: -0.466
B7 | inactive: 0.133
B8 | inactive: 0.237
B9 | inactive: -0.494
B10 | inactive: 1.33
B11 | active: 288
B12 | inactive: 1.33
B13 | inactive: 1.38

The binders below were run against Influenza A H3N2 A/Singapore/INFIMH-16-0019/2016 hemagglutinin ectodomain in the same assay as above. Settings: antigen blocked with: nothing.
Description: as §1

Binder | mRNA display binding score
B1 | inactive: 0.0979
B2 | inactive: -0.135
B3 | inactive: -0.186
B4 | inactive: 0.809
B5 | active: 5.64
B6 | inactive: -0.545
B7 | inactive: 0.0997
B8 | inactive: 1.12
B9 | inactive: -0.404
B10 | inactive: 0.86
B11 | inactive: 0.394
B12 | inactive: 1.05
B13 | inactive: 1.75

What follows are binders tested against Influenza A H5N1 A/Qinghai/1A/2005 hemagglutinin ectodomain in the same assay as above. Settings: antigen blocked with: 2 µM CR9114 IgG.
Description: as §1

Binder | mRNA display binding score
B1 | inactive: 0.33
B2 | inactive: 0.00872
B3 | active: 153
B4 | inactive: 0.888
B5 | inactive: 9.42
B6 | inactive: 0.00718
B7 | inactive: -0.109
B8 | inactive: 0.254
B9 | inactive: -0.524
B10 | inactive: 7.72
B11 | inactive: 2.69
B12 | inactive: 4.33
B13 | inactive: 0.452

Same assay, conditions: antigen blocked with: nothing

Binder | mRNA display binding score
B1 | inactive: 0.319
B2 | inactive: 0.369
B3 | active: 74
B4 | inactive: 0.493
B5 | active: 19.7
B6 | inactive: -0.25
B7 | inactive: 0.204
B8 | inactive: 0.169
B9 | inactive: -0.443
B10 | inactive: 7.25
B11 | inactive: 1.56
B12 | inactive: 4.41
B13 | inactive: 0.636

These binders were tested against Influenza A H7N9 A/Shanghai/2/2013 hemagglutinin ectodomain in the same assay as above. Settings: antigen blocked with: 2 µM CR9114 IgG.
Description: as §1

Binder | mRNA display binding score
B1 | inactive: -0.702
B2 | inactive: -0.148
B3 | inactive: 8.11
B4 | inactive: 0.177
B5 | active: 16.7
B6 | inactive: 0.438
B7 | inactive: -0.0241
B8 | inactive: 0.012
B9 | inactive: -0.208
B10 | inactive: 0.224
B11 | inactive: 3.6
B12 | inactive: 0.525
B13 | inactive: 0.504

Same assay, conditions: antigen blocked with: nothing

Binder | mRNA display binding score
B1 | inactive: 0.865
B2 | inactive: -0.184
B3 | inactive: 0.00801
B4 | inactive: 1.84
B5 | inactive: 0.49
B6 | inactive: -0.399
B7 | inactive: 0.15
B8 | inactive: 0.527
B9 | inactive: -0.522
B10 | inactive: 2.07
B11 | inactive: 0.734
B12 | inactive: 1.8
B13 | inactive: 1.94

Each binder was assayed against Influenza B/Lee/1940 hemagglutinin ectodomain in the same assay as above. Settings: antigen blocked with: 2 µM CR9114 IgG.
Description: as §1

Binder | mRNA display binding score
B1 | inactive: -0.742
B2 | inactive: -0.401
B3 | inactive: 2.56
B4 | inactive: 0.179
B5 | inactive: 0.225
B6 | inactive: 0.00685
B7 | inactive: 0.0633
B8 | inactive: -0.134
B9 | inactive: 0.631
B10 | inactive: -0.596
B11 | inactive: -0.541
B12 | active: 21.7
B13 | inactive: -1.23

Same assay, conditions: antigen blocked with: nothing

Binder | mRNA display binding score
B1 | inactive: -0.188
B2 | inactive: 0.0124
B3 | inactive: 2.62
B4 | inactive: 1.38
B5 | inactive: 0.246
B6 | active: 6.16
B7 | inactive: -0.171
B8 | inactive: -0.0885
B9 | inactive: -0.373
B10 | inactive: 0.455
B11 | inactive: 0.263
B12 | active: 42.4
B13 | inactive: -0.04

The binders below were run against Influenza B/Phuket/3073/2013 hemagglutinin ectodomain in the same assay as above. Settings: antigen blocked with: 2 µM CR9114 IgG.
Description: as §1

Binder | mRNA display binding score
B1 | inactive: -0.068
B2 | inactive: 0.509
B3 | active: 272
B4 | inactive: 0.512
B5 | inactive: 0.0108
B6 | inactive: -0.43
B7 | inactive: 0.233
B8 | inactive: 0.135
B9 | inactive: -0.273
B10 | active: 26.8
B11 | inactive: 2.36
B12 | inactive: 6.88
B13 | inactive: 1.12

Same assay, conditions: antigen blocked with: nothing

Binder | mRNA display binding score
B1 | inactive: 0.0863
B2 | inactive: 0.773
B3 | active: 119
B4 | inactive: 0.316
B5 | inactive: -0.15
B6 | inactive: -0.231
B7 | inactive: -0.0805
B8 | inactive: 0.0626
B9 | inactive: -0.358
B10 | active: 22.8
B11 | inactive: 2.18
B12 | active: 5.89
B13 | inactive: 0.328
